Source: PubChem BioAssay AID493208 (National Center for Advancing Translational Sciences (NCATS), 2011)
In all, about 44,000 compounds went through this assay and about 340 (0.77%) were called active. Roughly 5% stayed inconclusive and do not appear here. The call rests on the fitted dose curve; in most records, active means well fitted inhibition curve with a large enough effect; inconclusive means small, poorly fitted or top-dose-only effect; inactive means flat fitted curve, though single readings scatter. The list shows a part of the results.

Assay: Acumen qHTS Assay for Inhibitors of the mTORC1 Signaling Pathway in MEF (Tsc2-/-, p53-/-) Cells: Sytravon;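 further: plate controls were DMSO for no effect and rapamycin for full effect; nearly all actives have a fitted effect of over 50% in size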
Conditions: phospho-rpS6 immunofluorescence/PI, 24 h; series mostly up to 38.3 µM; activity change, negative = inhibition: at the top concentration
Outline: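 Tsc2-/-, p53-/- MEFs (empty-vector stable line) in DMEM + 10% FBS were treated with compounds 24 h at 37 degree Celsius, fixed, and immunostained for phospho-rpS6 (Alexa-488) with propidium iodide counterstain. Laser-scanning cytometry gave % positive cells, normalized against 7.5 nM rapamycin and DMSO.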

| Structure (SMILES) | activity change, negative = inhibition |
| --- | --- |
| Cc1nn2c(C)c(C(=O)NC(C)c3ccccc3)cnc2c1-c1ccc(F)cc1 (stereo unspecified) | inactive: -1.6% |
| COc1ccc(NC(=O)c2ccco2)cc1NC(=O)C(C)(C)Oc1ccc(Cl)cc1 | inactive: 3.53% |
| CCOc1ccc(NC(=O)Cn2cnc3sc(C)c(S(=O)(=O)N4CCN(c5ccccc5OC)CC4)c3c2=O)cc1 | inactive: 9.05% |
| COc1ccc(C)cc1NC(=O)c1cc2c(=O)n3cccc(C)c3nc2s1 | inactive: 0.567% |
| CCC(=O)N1CCCc2cc(S(=O)(=O)N3CCC(C(=O)NCc4ccc(F)cc4)CC3)ccc21 | inactive: -0.694% |
| Cc1cccc(C)c1-n1ncc(C(=O)O)c1C1CCN(C(=O)OC(C)(C)C)CC1 | inactive: 0.421% |
| COc1ccc(Cl)cc1NC(=O)c1cn(C2CCCC2)c(=O)c2c1c1ccccc1n2C | inactive: -9.64% |
| Cc1cccc(N(CC(=O)Nc2ccccc2C(F)(F)F)S(=O)(=O)c2ccccc2)c1C | inactive: -23.7% |
| COc1ccc(OC)c(C2CC(=O)Oc3c2c(=O)n(C)c2ccccc32)c1 (stereo unspecified) | inactive: -3.46% |
| O=C(NCC(c1cccs1)S(=O)(=O)c1ccccc1)c1ccc(C(F)(F)F)cc1 (stereo unspecified) | inactive: -2.82% |
| O=C(Nc1ccc(F)cc1)c1ccc2c(=O)n3c(nc2c1)CCCCC3 | inactive: -0.431% |
| COCCCNC(=O)CSc1nc2c(sc3ccccc32)c(=O)n1CCc1ccc(OC)c(OC)c1 | inactive: -5.81% |
| CN(C)CCNC(=O)Cn1ccc2cc(S(=O)(=O)N3CCCCCC3)ccc21 | inactive: 3.62% |
| Cc1cccc(Cn2c(-c3cccc(Br)c3)nc3ccccc32)c1 | inactive: -0.661% |
| CCOc1ccccc1NC(=O)CCc1c(C)nn(-c2ccc(N3CCCCC3)nn2)c1C | inactive: -12% |
| COc1ccccc1C(=O)NC1(C(F)(F)F)C(=O)Nc2c1c(=O)[nH]c(=O)n2-c1ccc(F)cc1 (stereo unspecified) | inactive: 0.22% |
| Cc1cc(Cl)ccc1OCC(=O)N(Cc1ccco1)Cc1ccccc1F | inactive: -0.281% |
| COc1ccc(CNC(=O)CSc2ncc3c(n2)-c2ccc(Cl)cc2N(Cc2ccccc2)S3(=O)=O)cc1 | inactive: -18.6% |
| Cc1cc(C)cc(NS(=O)(=O)c2ccc3[nH]cc(C(=O)NCc4ccccc4Cl)c(=O)c3c2)c1 | inactive: -0.598% |
| O=C(CSc1nnc(-c2ccc([N+](=O)[O-])cc2)o1)Nc1ccccc1 | inactive: -0.951% |
| COc1cc(NC(=O)Cn2c(=O)n(Cc3ccco3)c(=O)c3oc4ccccc4c32)cc(OC)c1 | inactive: -11.1% |
| Cc1ccc(-c2nc(Cn3c(=O)cc(-c4ccccc4)c4c(C)nn(C)c43)c(C)o2)cc1 | inactive: -9.45% |
| Cc1ccc(OCCn2nnc3sc4c(c3c2=O)CCC(C)C4)cc1 (stereo unspecified) | inactive: -2.96% |

| Structure (SMILES) | activity change, negative = inhibition |
| --- | --- |
| CCOc1ccc(C(=O)N2CCC(c3noc(-c4ccc(S(=O)(=O)N5CCCC5)cc4)n3)CC2)cc1 | inactive: -3.38% |
| CN(C1CCCCC1)S(=O)(=O)c1ccc2c(c1)c(=O)c(C(=O)N1CCN(c3ccccc3F)CC1)cn2C | inactive: 0.113% |
| CCc1c(-c2ccccc2)nc2ccccc2c1C(=O)NCc1ccc(C)cc1 | inactive: 12.4% |
| Cn1cnc(S(=O)(=O)N2CCC(C(=O)N3CCN(c4ccccc4F)CC3)CC2)c1 | inactive: 9.1% |
| CSc1cccc(NS(=O)(=O)c2cn(C)c(C)n2)c1 | inactive: -0.264% |
| CCOc1ccc2c(c1)NC(c1cccs1)=NC(c1ccc(F)cc1)=N2 | inactive: 2.87% |
| COc1ccc(N2CCN(c3nc4ccc(C)cc4n4nnnc34)CC2)cc1 | inactive: 1.07% |
| O=C(Nc1ccc(Br)cc1F)N1CCC2(CC1)Oc1ccccc1C(=O)N2Cc1ccccc1F | inactive: 0.0884% |
| CCN(c1ccccc1)c1nnc(NC(=O)Nc2ccc(Br)cc2F)s1 | inactive: -14.3% |
| O=C1CSC2(C(=O)N(Cc3ccccc3)c3ccccc32)N1c1ccc(Cl)cc1 (stereo unspecified) | inactive: -1.59% |
| COc1ccc(C2C(C(=O)Nc3ccc(C)cc3C)=C(C)Nc3nc4ccccc4n32)c(OC)c1 (stereo unspecified) | inactive: -3.33% |
| COc1ccc2occ(CC(=O)Nc3ccc(S(=O)(=O)Nc4nc(C)cc(C)n4)cc3)c2c1 | inactive: -6.25% |
| COC(=O)c1cc(NC(=O)Cn2nc(-c3ccc(C)c(C)c3)ccc2=O)cc(C(=O)OC)c1 | inactive: -13.7% |
| CCC(C)NC(=O)C1=CC(c2ccc3c(c2)OCO3)=NS(=O)(=O)N1C (stereo unspecified) | inactive: 1.98% |
| O=C(CN1C(=O)COc2ccc(S(=O)(=O)Nc3ccccc3)cc21)Nc1cccc(Cl)c1 | inactive: 0% |
| COc1cccc2c1Oc1ncccc1N(C(=O)CCC(=O)NCc1ccccc1Cl)C2 | inactive: 1.12% |
| COc1ccc2c(c1)cc1c(=O)n(CC(=O)NCCCc3ccccc3)nc(C)n12 | inactive: 1.93% |
| COC(=O)c1ccc(Cn2nnc3c(=O)[nH]c(C4CCCN(S(=O)(=O)c5cccc(Cl)c5)C4)nc32)cc1 (stereo unspecified) | inactive: -0.0411% |
| CCOc1ccc(-c2cc(-c3nc(-c4ccc(OC)c(OC)c4)no3)[nH]n2)cc1 | inactive: -3.21% |
| Cc1ccccc1CSc1ncc(CO)n1Cc1ccc(F)cc1 | inactive: 1.4% |
| COc1ccc(Cc2nc3ccccc3n2Cc2ccccc2F)cc1 | inactive: 0.998% |
| CCN(C(=O)Cn1cnc2sc(C)c(S(=O)(=O)N3CCN(c4ncccn4)CC3)c2c1=O)c1ccccc1F | inactive: -7.26% |
| COc1ccc(-c2cn3cccnc3n2)cc1NC(=O)c1cc(C)cc(C)c1 | inactive: -4.51% |
